Procedure: DS 13 was subject to accelerated stability conditions (40° C.) with lyophilized material for one and two months (FIG. 5B). At each time point, material was dissolved in water and analyzed by HPLC.

For `CCCCCCCCCCC(=O)N(CCOCCOCCOCCOC)CCOCCOCCOCCOC` [DS13], the “corresponding stability at room temperature” value was 4 months.
